# According to PubChem BioAssay AID485294 (National Center for Advancing Translational Sciences (NCATS), 2010):
# Screen size: about 370,000 compounds; about 150 (0.041%) were called active. Inconclusive means that the source gave no clear call. Such entries were picked first, then a sample of the others. The call rests on the fitted dose curve; in most records, active means well fitted inhibition curve with a large enough effect; inconclusive means small, poorly fitted or top-dose-only effect; inactive means flat fitted curve, though single readings scatter. No potency is given beside an inconclusive call; the fits are too rough.
# Molecular target: Beta-lactamase (Escherichia coli (strain K12)) (UniProt P00811)
# Test: qHTS Inhibitors of AmpC Beta-Lactamase (assay with detergent); further: nearly all actives have a fitted effect of over 25% in size
# Conditions: AmpC hydrolysis of nitrocefin, absorbance 480 nm, 0.01% Triton; series mostly up to 114 µM
# Summary of the method: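 20 mM phosphate pH 7.0 + 0.01% (detergent screen) or 0.0001% Triton X-100; 5.3 nM AmpC reagent; cpd preinc 15 min RT; nitrocefin (800 uM stock) to start; A480 q20 s × 4 min; Activity was normalised to no-enzyme and no-compound control wells.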
# Potency means the concentration at half of the fitted maximal effect; tags describe the fitted curve by direction and shape.
# Sequence of UniProt P00811 (P00811 whole entry, looked up): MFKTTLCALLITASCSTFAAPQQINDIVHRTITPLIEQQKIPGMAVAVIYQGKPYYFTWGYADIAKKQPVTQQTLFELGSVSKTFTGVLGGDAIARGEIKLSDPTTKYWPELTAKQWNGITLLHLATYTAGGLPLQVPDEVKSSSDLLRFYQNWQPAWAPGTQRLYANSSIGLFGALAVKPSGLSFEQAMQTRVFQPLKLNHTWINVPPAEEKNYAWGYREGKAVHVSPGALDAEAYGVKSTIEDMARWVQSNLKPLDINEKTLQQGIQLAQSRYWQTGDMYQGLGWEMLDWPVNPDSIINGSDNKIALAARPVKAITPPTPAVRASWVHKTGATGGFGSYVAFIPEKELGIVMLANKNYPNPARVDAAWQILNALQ
row,SMILES,Potency
1,COc1ccc(N2CCN(C(CNC(=O)C(=O)NCCCN(C)C)c3cccnc3)CC2)cc1 (stereo not given),inactive
2,O=C1c2ccccc2C(=O)N1CCCCCCc1ccccc1,inactive
3,CC(C)(C)C(=O)N1CCC(O)(CS(=O)(=O)c2ccc(Cl)c(Cl)c2)CC1,"inconclusive [inhibitor, full curve, poor fit]"
4,Cn1c(=O)c2c(nc(NCc3ccco3)n2C)n(C)c1=O,"inconclusive [inhibitor, partial curve, poor fit]"
5,Cc1nnc(NC(=O)C2(c3ccccc3)CCOCC2)s1,"inconclusive [inhibitor, full curve]"
6,O=C(c1ccc(Cl)cc1)C1CCCN(Cc2ccon2)C1 (stereo not given),inactive
7,c1cncc(C2CCCCN2Cc2ccc3c(c2)OCO3)c1 (stereo not given),"inconclusive [inhibitor, full curve, poor fit]"
8,Cc1nc2c3cnn(-c4ccc(C)c(C)c4)c3ncn2n1,"inconclusive [inhibitor, full curve, poor fit]"
9,CNCc1ccccc1Sc1cccc2ccccc12,inactive
10,Cc1ccc(N2C(=O)CC(Sc3ccccc3C(=O)O)C2=O)c([N+](=O)[O-])c1 (stereo not given),"inconclusive [inhibitor, single point]"
11,COc1ccccc1NC(=O)CC(NCc1ccccc1)C(=O)O (stereo not given),"inconclusive [inhibitor, full curve, poor fit]"
12,COc1ccc(C2CC(c3ccccc3C)n3nc(N)nc3N2)cc1 (stereo not given),inactive
13,O=C(COc1ccc(F)cc1)Nc1cc(S(=O)(=O)N2CCCCC2)ccc1N1CCCCC1,"inconclusive [inhibitor, partial curve]"
14,O=C(O)/C=C/C(=O)Nc1ccc(NC(=O)c2ccccc2)c(Cl)c1,inactive
15,c1ccc(-c2csc(Cc3nnc4n3CCCCC4)n2)cc1,"inconclusive [inhibitor, full curve, poor fit]"
16,NC(=O)COC(=O)c1c2c(nc3ccccc13)CCC2,"inconclusive [inhibitor, full curve, poor fit]"
17,CCCOc1ccc(N2C(=O)CC(N3CCCC(C(=O)N4CCCC4)C3)C2=O)cc1 (stereo not given),"inconclusive [inhibitor, partial curve]"
18,Cn1c(=O)c2c(nc(NCC3CCCO3)n2Cc2ccccc2)n(C)c1=O (stereo not given),"inconclusive [inhibitor, single point]"
19,COc1ccc(CNC(=O)C(=O)NCCC2CCCCN2S(=O)(=O)c2ccc(C)cc2)cc1 (stereo not given),"inconclusive [inhibitor, full curve, poor fit]"
20,CCOc1ccc2oc(C(=O)NN3C(C)CCCC3C)c(C)c2c1 (stereo not given),"inconclusive [inhibitor, full curve]"
21,COc1cccc(CNC(=O)Cc2ccc(NC(=O)N3CCCCc4ccccc43)cc2)c1OC,inactive
22,Cc1ccc(C(=O)N/N=C/C2=Cc3ccccc3OC2C)cc1 (stereo not given),inactive
23,COc1ccc(CCNC(=O)Cc2cc(OC)c(OC)cc2[N+](=O)[O-])cc1OC,"inconclusive [inhibitor, full curve]"
24,Cc1ccc(-n2cccc2/C=C2\C(=N)N3N=C(C(C)C)SC3=NC2=O)cc1,"inconclusive [inhibitor, full curve]"

row,SMILES,Potency
1,O=C(N/N=C/c1cc(Br)c(Br)o1)c1cc2ccccc2o1,"inconclusive [inhibitor, partial curve, poor fit]"
2,Cn1c(NCCCN2CCOCC2)nc2c1c(=O)n(Cc1ccc(Cl)cc1Cl)c(=O)n2C,inactive
3,COc1ccc(OC)c(/C=N/N(C)c2ccccc2)c1,"inconclusive [inhibitor, single point]"
4,O=C(Cc1ccccc1[N+](=O)[O-])OCC(=O)c1c[nH]c2ccccc12,inactive
5,CC(C)[C@@H]1NC(=O)c2cc([N+](=O)[O-])cc(I)c2NCCC[C@@H](C(=O)NC(CC(=O)O)C(N)=O)NC(=O)[C@H](CO)NC1=O (stereo not given in full),"inconclusive [inhibitor, full curve]"
6,COc1ccccc1NC(=O)CCCN1C(=O)C2CC=CCC2C1=O (stereo not given),inactive
7,Cc1ccc(C(C)C)c(OCC(=O)Nc2ccc(C(=O)OC3CCCCC3)cc2)c1,inactive
8,COc1ccccc1-n1c(SCC(=O)NC2CCCC2)nc2cccnc21,"inconclusive [inhibitor, full curve, poor fit]"
9,COc1ccc(CNC(=O)c2c(O)nc3cc(C)ccn3c2=O)cc1,"inconclusive [inhibitor, single point]"
10,COC(=O)c1ccccc1NC(=O)CCNC(=O)Cn1cnc2ccccc2c1=O,"inconclusive [inhibitor, partial curve, poor fit]"
11,O=C(/C=C/c1ccco1)NCc1ccccn1,inactive
12,Fc1ccc(-n2nnc(-c3nccs3)n2)cc1,inactive
13,Cc1ccc(C)c(-n2c(CCC(=O)O)ccc2-c2ccc(Cl)cc2)c1,inactive
14,CC1(C)C=Cc2c(ccc3c2OC[C@H](c2ccc(O)cc2O)C3)O1,inactive
15,COc1ccc(Cc2nnc(NS(=O)(=O)c3ccc(NC(C)=O)cc3)s2)cc1,"inconclusive [inhibitor, full curve, poor fit]"
16,Cc1ccc(C(=O)CC2(O)C(=O)N(CCc3ccccc3)c3ccc(Cl)cc32)cc1 (stereo not given),inactive
17,CCCCC(Sc1nc(N)c(NC(=O)c2ccco2)c(=O)[nH]1)C(=O)O (stereo not given),"inconclusive [inhibitor, full curve, poor fit]"
18,CCCCCOC(=O)CSc1ncnc2c1sc1nc(N3CCOCC3)c3c(c12)CCCC3,inactive
19,CCOC(=O)N1CCC(N2CC34C=CC(O3)C(C(=O)Nc3ccc(OCC)cc3)C4C2=O)CC1 (stereo not given),"inconclusive [inhibitor, full curve, poor fit]"
20,c1coc(-c2nnc(SCc3nc4ccccc4[nH]3)o2)c1,"inconclusive [inhibitor, full curve, poor fit]"
21,Cc1cc(C)c(S(=O)(=O)N2CCN=C2c2ccccc2)cc1C,"inconclusive [inhibitor, partial curve, poor fit]"
22,O=C(CSc1nnc(COc2ccc(Cl)cc2)o1)NC1CCCCC1,"inconclusive [inhibitor, full curve, poor fit]"
23,CC(C)SCCCCOc1ccc2ccccc2c1,inactive
24,COc1ccc(OCCCCn2c(-c3ccc(Cl)cc3)nc3ccccc3c2=O)cc1,inactive

row,SMILES,Potency
1,COc1ccc(NC(=O)c2ccc(C#N)cc2)cc1NS(=O)(=O)c1ccc(F)cc1,"inconclusive [inhibitor, full curve, poor fit]"
2,Cc1ccc(CNC(=O)c2cc3c(C)nc4ccccc4c3o2)cc1,"inconclusive [inhibitor, full curve]"
3,Nc1nnnn1CC(=O)N/N=C/c1ccccn1,inactive
4,Cc1c(C(=O)O)[nH]c2c1C(=O)CC(c1ccccc1)C2 (stereo not given),"inconclusive [inhibitor, full curve, poor fit]"
5,CNC(=S)N/N=C/c1ccccc1Cl,"inconclusive [inhibitor, full curve, poor fit]"
6,COc1ccc(C2C(O)C(c3c[nH]c4ccccc34)=NN2C(=O)CCl)cc1 (stereo not given),inactive
7,Cc1c(/C=N/NC(=O)C(NC(=O)c2ccc3c(c2)OCO3)C(C)C)c2ccccc2n1C (stereo not given),"inconclusive [inhibitor, single point]"
8,O=C(NC(=S)Nc1cc([N+](=O)[O-])ccc1O)c1cccnc1,inactive
9,CC(=O)N1CN(S(=O)(=O)c2ccc(C)cc2)CC1C (stereo not given),"inconclusive [inhibitor, full curve, poor fit]"
10,COC(=O)c1ccc(C)c(NS(=O)(=O)c2ccc(NC(C)=O)cc2)c1,"inconclusive [inhibitor, full curve, poor fit]"
11,O=C(c1ccccc1)c1nc[nH]c1C(=O)Nc1ccccc1,"inconclusive [inhibitor, full curve]"
12,COc1cc(NC(=O)CCN2CCN(C)CC2)cc(OC)c1,"inconclusive [inhibitor, partial curve, poor fit]"
13,CCc1ccc(NC(=O)Cn2c(SC)nc3ccccc32)cc1,"inconclusive [inhibitor, full curve, poor fit]"
14,COCCCNC(=O)c1cc(C(=O)c2ccccc2Br)c[nH]1,"inconclusive [inhibitor, full curve, poor fit]"
15,CC(N)Cc1cn(Cc2ccccc2)c2ccccc12 (stereo not given),"inconclusive [inhibitor, full curve, poor fit]"
16,COc1ccccc1NC(=O)COc1ccc(C(=O)OCC(=O)N(C(C)C)C(C)C)cc1OC,"inconclusive [inhibitor, full curve, poor fit]"
17,Cc1cc(=O)oc(C)c1C(=O)Nc1ccc2ncccc2c1,inactive
18,CC(=O)OCCOc1nc(N(C)C)nc(N(C)C)n1,"inconclusive [inhibitor, partial curve]"
19,COC(=O)c1ccccc1NC(=O)/C=N/O,inactive
20,C=CCNC(=O)c1ccc(CN(c2ccc(OCC)cc2)S(=O)(=O)c2ccc(C)cc2)cc1,inactive
21,COc1ccc(NC(=S)Nc2ccccc2Cl)cn1,"inconclusive [inhibitor, single point]"
22,O=C(/C=C/c1ccc([N+](=O)[O-])cc1)NCCc1ccc(F)cc1,"inconclusive [inhibitor, partial curve, poor fit]"
